Source: the supplement of paper PMC12217912
The other results are listed elsewhere or left out. Sequences were assembled here from the parent chain. Values near 0.05 are background.

B1: TEV protease; numbered along this chain (parent)
chain: MGESLFKGPRDYNPISSSICHLTNESDGHTTSLYGIGFGPFIITNKHLFRRNNGTLVVQSLHGVFKVKDTTTLQQHLVDGRDMIIIRMPKDFPPFPQKLKFREPQREERICLVTTNFQTKSMSSMVSDTSCTFPSGDGIFWKHWIQTKDGQCGSPLVSTRDGFIVGIHSASNFTNTNNYFTSVPKNFMELLTNQEAQQWVSGWRLNADSVLWGGHKVFMVKPEEPFQPVKEATQL

Variants of: B1
Experiment: raw area under fraction-flipped curve 0-4 h after induction (AUC4h, not background-subtracted), DNA-recorder readout of cleavage of the substrate (dimensionless); higher = more cleavage of the substrate by the protease variant
Details: temperature: 34 °C; time window: 0-4 h after rhamnose induction
Protocol: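 In vivo DNA recorder in E. coli TOP10(DE3) ΔrhaA at 34 °C. Each TEVp single-site mutant (parent TEVp 0) is paired with a single-site variant of the 7-mer TEVs (canonical ENLYFQ|S). The substrate sits between flexible linkers in a Bxb1-sfGFP-TEVs-SsrA fusion, so cleavage stabilises Bxb1 and speeds flipping of a recombination array, read by NGS. The value is the raw area under the fraction-flipped curve over 0-4 h after rhamnose induction (AUC4h), with ≥20 reads per time point. It is not background-subtracted; inactive controls average about 0.047.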
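Further: Bxb1 expression induced with 0.2% (w/v) L-rhamnose at OD600 near 0.5, cultures sampled hourly, flipped fraction per protease–substrate barcode pair counted by paired-end Illumina sequencing.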

Variant	area with substrate ENAYFQS	area with substrate ENCYFQS	area with substrate ENEYFQS	area with substrate ENFYFQS	area with substrate ENGYFQS	area with substrate ENHYFQS	area with substrate ENIYFQS	area with substrate ENKYFQS	area with substrate ENNYFQS	area with substrate ENPYFQS	area with substrate ENQYFQS	area with substrate ENSYFQS	area with substrate ENTYFQS	area with substrate ENVYFQS	area with substrate ENYYFQS	area with substrate ENDYFQS	area with substrate ENRYFQS	area with substrate ENWYFQS	area with substrate ENMYFQS
MGESLFKGPRDYNPISSSICHLTNESDGHTTSLYGIGFGPFIITNKHLFRRNNGTLVVQSLHGVFKVKDTTTLQQHLVDGRDMIIIRMPKDFPPFPQKLKFREPQREERICLVTTNFQTKSMSSMVHDTSCTFPSGDGIFWKHWIQTKDGQCGSPLVSTRDGFIVGIHSASNFTNTNNYFTSVPKNFMELLTNQEAQQWVSGWRLNADSVLWGGHKVFMVKPEEPFQPVKEATQL [S127H]	0.0614	0.0683	0.0641	0.0768	0.0572	0.0448	0.106	0.076	0.0701	0.07	0.0425	0.0616	0.0659	0.0824	0.0573				
MGESLFKGPRDYNPISSSICHLTNESDGHTTSLYGIGFGPFIITNKHLFRRNNGTLVVQSLHGVFKVKDTTTLQQHLVDGRDMIIIRMPKDFPPFPQKLKFREPQREERICLVTTNFQTKSMSSMVSDTSCTFPSGDGIFWKHWIQTKDGQCGSPLVSTRDGFIVGIHSASNFTNTNNYFTSVPKNFMELLTNQEAQQWVSGWQLNADSVLWGGHKVFMVKPEEPFQPVKEATQL [R204Q]	0.0948	0.0695	0.0626		0.0525	0.0404	0.105	0.0624		0.0642	0.0636	0.0564		0.107	0.0789	0.0562	0.0589	0.0773	
MGESLFKGPRDYNPISSSICHLTNESDGHTTSLYGIGFGPFIITNKHLFRRNNGTLVVQSLHGVFKVKDTTTLQQHLVDGRDMIIIRMPKDFPPFPQKLKFRWPQREERICLVTTNFQTKSMSSMVSDTSCTFPSGDGIFWKHWIQTKDGQCGSPLVSTRDGFIVGIHSASNFTNTNNYFTSVPKNFMELLTNQEAQQWVSGWRLNADSVLWGGHKVFMVKPEEPFQPVKEATQL [E103W]	0.062	0.0447	0.0558	0.054	0.0569	0.0556	0.0898	0.0666	0.0633	0.0543	0.0663	0.0511	0.0589	0.0683	0.0468	0.0502	0.0464		0.0591
MGESLFKGPRDYNPISSSICHLTNESDGHTTSLYGIGFGPFIITNKHLFRRNNGTLVVQQLHGVFKVKDTTTLQQHLVDGRDMIIIRMPKDFPPFPQKLKFREPQREERICLVTTNFQTKSMSSMVSDTSCTFPSGDGIFWKHWIQTKDGQCGSPLVSTRDGFIVGIHSASNFTNTNNYFTSVPKNFMELLTNQEAQQWVSGWRLNADSVLWGGHKVFMVKPEEPFQPVKEATQL [S60Q]	0.0835	0.0715	0.0707		0.067		0.11			0.0581	0.0611		0.0563	0.0736		0.0625			
MGESLFKGPRDYNPISSSICHLTLESDGHTTSLYGIGFGPFIITNKHLFRRNNGTLVVQSLHGVFKVKDTTTLQQHLVDGRDMIIIRMPKDFPPFPQKLKFREPQREERICLVTTNFQTKSMSSMVSDTSCTFPSGDGIFWKHWIQTKDGQCGSPLVSTRDGFIVGIHSASNFTNTNNYFTSVPKNFMELLTNQEAQQWVSGWRLNADSVLWGGHKVFMVKPEEPFQPVKEATQL [N24L]	0.0662	0.0698	0.0663	0.057	0.0714	0.0652	0.107	0.0592	0.0583		0.0647	0.0561	0.0797	0.0755	0.0577	0.0695	0.0696	0.0069	0.0979
MGESLFKGPRDYNPISSSICHLTNESDGHTTSLYGIGFGPFIITNKHLFRRNNGTLVVQSLHGVFKVKDTTTLQQHLVDGRDMIIIRMPKDFPPFPQKLKFREPQREERICLVTTNFQTKSMSSMVSDTSCTFPSGDGIFWKHWIQTKDGQCGSPLVSTRDGFWVGIHSASNFTNTNNYFTSVPKNFMELLTNQEAQQWVSGWRLNADSVLWGGHKVFMVKPEEPFQPVKEATQL [I164W]	0.0517	0.0539	0.0534	0.0321		0.0515		0.0496	0.0629	0.0819		0.0616	0.0421	0.0554	0.0513	0.0536	0.06		
MGESLFKGPRDYNPISSSICHLTNESDGHTTSLYGIGFGPFIITNKHLFRRNNGTLVVQSLHGVFKVKDTTTLQQHLVDGRDMIIIRMPKDFPPFPQKLKFREPQREERICLVPTNFQTKSMSSMVSDTSCTFPSGDGIFWKHWIQTKDGQCGSPLVSTRDGFIVGIHSASNFTNTNNYFTSVPKNFMELLTNQEAQQWVSGWRLNADSVLWGGHKVFMVKPEEPFQPVKEATQL [T114P]	0.056	0.0481		0.0695		0.0608	0.0922	0.0616			0.0567	0.0498				0.0531	0.0569	0.0363	
MGESLFKGPRDYNPISSSICHLTNESDGHTTSLYGIGFGPFIITNKHLFRRNNGTLVVQSLHGVFKVKDTTTLQQHLVDGRDMIIIRMPKDFPPFPQKLKFREPQREERICLVTTNFQTKSMSSMVSDTSCTFPSGDGIFWKHWIQTKDGQCGSPLVSTRDGFIVGIHSASNFTMTNNYFTSVPKNFMELLTNQEAQQWVSGWRLNADSVLWGGHKVFMVKPEEPFQPVKEATQL [N175M]	0.0614	0.0642	0.0593	0.0518	0.0432	0.061	0.0829			0.05	0.0544	0.0667	0.0686		0.0796	0.0429	0.0747	0.0067	
MGESLFKGPRDENPISSSICHLTNESDGHTTSLYGIGFGPFIITNKHLFRRNNGTLVVQSLHGVFKVKDTTTLQQHLVDGRDMIIIRMPKDFPPFPQKLKFREPQREERICLVTTNFQTKSMSSMVSDTSCTFPSGDGIFWKHWIQTKDGQCGSPLVSTRDGFIVGIHSASNFTNTNNYFTSVPKNFMELLTNQEAQQWVSGWRLNADSVLWGGHKVFMVKPEEPFQPVKEATQL [Y12E]	0.0658	0.0735	0.0659	0.0455	0.0666	0.0702		0.0452	0.0573	0.0649	0.0609	0.0636		0.0544		0.0422	0.0599		
